Here are results for 49 molecules from PubChem BioAssay AID1508623 (National Center for Advancing Translational Sciences (NCATS), 2021).

Out of some 48,000 compounds screened, about 450 (0.94%) were called active. Another 19% or so got no clear call; they are omitted. Calls come from the whole dose curve; as a rule, active = well fitted inhibition curve with a large enough effect; inconclusive = small, poorly fitted or top-dose-only effect; inactive = no such curve, though single readings can be large or run the other way. Some of the results follow.

This assay can be described thus: Primary qHTS for Identification of Small Molecule Inhibitors of Huntingtin Promoter Activity. Note: nearly all actives have a fitted effect of over 50% in size. The following applies: HEK293 HTT promoter firefly luciferase reporter (activity 0% = vehicle and -100% = no light), 24 h; series mostly up to 57.5 µM; activity change, negative = inhibition: at the top concentration. The method in brief:
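HEK293 Fluc reporter, 2,500 cells/well, 24 h pre-culture; cpds up to 57.5 uM final, 24 h 37 degrees C; Dual-Glo, 10 min RT; normalized vehicle = 0%, zero RLU = -100%.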
As to `CCN(CC)C(=O)C1CCCN(c2ncnc3onc(C)c23)C1` (centres undefined), the “activity change, negative = inhibition” value was inactive: -24.3%.

On to `COc1cccc(-c2nc3c(C#N)c[nH]n3c2NC2CCCCC2)c1OC`, for which the “activity change, negative = inhibition” value was inactive: -20.8%. Then `CC(NC(=O)c1sc2ncccc2c1-n1cccc1)c1ccccc1` (centres undefined), with inactive: -20.6%. Then `O=C(NCC(c1cccnc1)N1CCN(Cc2ccccc2)CC1)C(=O)Nc1cccc(F)c1` (centres undefined), with inactive: 12.3%; and `Cc1ccc(Cn2c(=O)n(CC3CCC(C(=O)N4CCOCC4)CC3)c(=O)c3sccc32)cc1` (centres undefined), with inactive: 6.05%; and `O=C(CC1Oc2ccc(Cl)cc2NC1=O)NCc1ccccc1` (centres undefined), with inactive: -5.5%.

For `CCOC(=O)CC(NC(=O)Cn1nnc(-c2ccc(C(F)(F)F)cc2)n1)c1ccc(C)cc1` (centres undefined), the “activity change, negative = inhibition” value was inactive: -27%. On to `COc1ccc(CCNC(=O)CCCCCn2c(SCC(N)=O)nc3cc4c(cc3c2=O)OCO4)cc1OC`, for which the “activity change, negative = inhibition” value is inactive: -15.2%. Regarding `CCN(CC)S(=O)(=O)c1ccc2c(c1)N(CC(=O)Nc1ccc(F)cc1)C(=O)CO2`, the “activity change, negative = inhibition” value was inactive: -12.6%.

On to `Cc1ccc(C)c(N(C)C(=O)C2CCN(c3ncnc4c3nc3n4CCCCC3)CC2)c1`, for which the “activity change, negative = inhibition” value was inactive: -21.1%. `Cn1cnc(S(=O)(=O)N2CCCC(C(=O)Nc3cccc(C#N)c3)C2)c1` (centres undefined): the “activity change, negative = inhibition” value is inactive: -16.7%. Consider `O=C(Nc1c(C(=O)c2ccc(F)cc2)oc2ccccc12)c1cc(-c2ccccc2)on1`, for which the “activity change, negative = inhibition” value was inactive: -16.9%.

With `COc1ccc(NC(=O)N(Cc2nnc3n2CCCCC3)c2ccc(OC)c(Cl)c2)cc1`, the “activity change, negative = inhibition” value was inactive: -1.08%.

Regarding `CCN(CC)S(=O)(=O)c1nnc(NC(=O)COc2cccc(C)c2)s1`, the “activity change, negative = inhibition” value was inactive: -13.7%. Consider `COCCNC(=O)CSc1nc2ccccc2nc1Cc1ccc(C)cc1`, for which the “activity change, negative = inhibition” value was inactive: -11.5%. As for `CCOc1ccc(CNC(=O)c2ccc3nc(CC)c(CC)nc3c2)cc1OC`, the figure is inactive: -6.11%; as for `CCc1ccc(S(=O)(=O)c2c(C(=O)c3ccc(C)c(C)c3)cnc3ccccc23)cc1`, inactive: -9.5%. In the case of `COc1cccc(N2CCN(c3ccc4nnc(CCC(=O)O)n4n3)CC2)c1`, the “activity change, negative = inhibition” value is inactive: 7.42%. For `COc1cccc(Cc2nc3ccccc3nc2SCC(=O)Nc2ccccc2F)c1`, the “activity change, negative = inhibition” value is inactive: -27.9%.

On to `Cc1c(C(=O)NCc2ccccc2Cl)cccc1-n1cnc2cccnc21`, for which the “activity change, negative = inhibition” value is inactive: -22.8%. Then `Cc1cccc(CNC(=O)c2ccc3nc(-c4ccccc4)c(-c4ccccc4)nc3c2)c1`, with inactive: 1.83%. Consider `CCC1(c2ccccc2)C(=O)NCNC1=O`, for which the “activity change, negative = inhibition” value was inactive: -0.198%.

Regarding `CC(C)C1N=C2c3ccccc3N=C(SCC(=O)NCc3ccc(F)cc3)N2C1=O` (centres undefined), the “activity change, negative = inhibition” value is inactive: -21.5%. Take `Cc1cccc(NC(=O)Cn2c(=O)n(CCc3ccccc3)c(=O)c3sc4ccccc4c32)c1`: the “activity change, negative = inhibition” value was inactive: 21.6%. For the molecule `CCC12CN3CC(C)(CN(C1)C3c1c(C)n(C)c3ccccc13)C2=O` (centres undefined), the “activity change, negative = inhibition” value was inactive: -7.84%. As for `O=C(CSc1nc2c([nH]c3ccccc32)c(=O)n1-c1ccc(F)cc1)N1CCCc2ccccc21`, the “activity change, negative = inhibition” value was inactive: 6.02%. As to `CCOC(=O)Cn1c(=O)n(C2CCCCC2)c2nc(-c3ccccc3Cl)nc(C(N)=O)c21`, the “activity change, negative = inhibition” value is inactive: -14.2%.

As to `Cc1cccc(C)c1OCc1nc2c3cnn(-c4ccccc4Br)c3ncn2n1`, the “activity change, negative = inhibition” value was inactive: -6.71%. On to `Nc1c(-c2nc(-c3ccc(Cl)cc3)no2)nnn1-c1ccc(C(F)(F)F)c(Cl)c1`, for which the “activity change, negative = inhibition” value was inactive: -7.11%. As to `COc1ccc(CCN2C(=O)c3[nH]nc(-c4ccccc4O)c3C2c2ccc(O)c(OC)c2)cc1` (centres undefined), the “activity change, negative = inhibition” value was inactive: -14.8%. Turning to `COc1ccc(-c2c(C)nn3c(-c4ccccc4)cc(-c4ccccc4)nc23)cc1OC`, the “activity change, negative = inhibition” value is inactive: 15.3%. As for `O=C(NC1CCCCC1)c1cc(Nc2ccccc2)nc2ccccc12`, the “activity change, negative = inhibition” value was inactive: 4.37%. As to `COC(=O)c1ccc(NC(=O)CCNS(=O)(=O)c2cccc3nsnc23)cc1`, the “activity change, negative = inhibition” value is inactive: -3.98%. On to `CCC(CC)C(=O)Nc1nnc2n1CCS2`, for which the “activity change, negative = inhibition” value was inactive: -0.277%. Consider `COC(=O)c1c(-c2ccc(Cl)cc2)noc1N1CCN(c2ccccc2F)CC1`, for which the “activity change, negative = inhibition” value was inactive: -2.47%. For the molecule `CCCCNC(=O)c1ccc2c(c1)NC(=O)C(C(C)C)N2` (centres undefined), the “activity change, negative = inhibition” value is inactive: -14.9%.

As for `COc1ccc2c(c1)c1c(c(=O)n(-c3ccc(F)c(Cl)c3)c(=O)n1Cc1ccccc1F)n2C`, the “activity change, negative = inhibition” value is inactive: -1.57%. Take `COc1ccccc1NC(=O)C(=O)c1cc(C)n(-c2cc(C)cc(C)c2)c1C`: the “activity change, negative = inhibition” value is inactive: -5.43%. For the molecule `CCOc1cccc(-c2nc3ccccc3c(=O)o2)c1`, the “activity change, negative = inhibition” value was inactive: 13.1%. On to `O=C1CC(c2ccccc2)Cc2[nH]c(=O)c(-c3nc(-c4ccc(Cl)c(Cl)c4)cs3)cc21` (centres undefined), for which the “activity change, negative = inhibition” value is inactive: -20.2%. On to `COC(=O)C1=C(C)NC(C)=C(C(=O)OC(C)(C)CN(C)CCC(c2ccccc2)c2ccccc2)C1c1cccc([N+](=O)[O-])c1` (centres undefined), for which the “activity change, negative = inhibition” value was inactive: -24.4%. On to `Cc1cc(C)c2oc(C(=O)NCCc3ccc(S(N)(=O)=O)cc3)cc(=O)c2c1`, for which the “activity change, negative = inhibition” value is inactive: 17.2%. With `CC(C)(C)c1ccc(C(=O)NC2=NC(c3cccc(F)c3)CC(=O)N2)cc1` (centres undefined), the “activity change, negative = inhibition” value was inactive: -10.4%. Take `COc1ccc(Cl)cc1NC(=O)C(=O)NCc1ccc(Cl)cc1`: the activity change, negative = inhibition is inactive: -14.2% [at 11.5 µM]. On to `C[C@]12CCC(=O)C=C1CC[C@@H]1[C@@H]2CC[C@@]2(C)[C@H]1CC[C@]2(O)C(=O)CO`, for which the “activity change, negative = inhibition” value is inactive: -3.37%. As for `COCCNS(=O)(=O)c1cc(-c2nn3c(C)nnc3c3ccccc23)ccc1C`, the “activity change, negative = inhibition” value is inactive: 2.07%. Then `Cc1ccc(NC(=O)N2CCN(C(=O)c3nsc4ccccc34)CC2)cc1C`, with inactive: -1.73%; and `COc1cccc(NC(=O)CN2C=NS(=O)(=O)c3ccccc32)c1`, with inactive: -19.6%; and `COc1cccc(-c2nc3c(c(SCC(=O)Nc4cccc(C)c4C)n2)Cc2c(CO)cnc(C)c2O3)c1`, with inactive: -4.54%.
